About 200 (0.062%) of roughly 320,000 compounds were called active. Inconclusive means that the source gave no clear call. Such entries were picked first, then a sample of the others. Calls come from the whole dose curve; as a rule, active = well fitted activation curve with a large enough effect; inconclusive = small, poorly fitted or top-dose-only effect; inactive = no such curve, though single readings can be large or run the other way. Potencies of inconclusive entries are left out as doubtful fits.
assay: qHTS assay for re-activators of p53 using a Luc reporter; conditions: H1299 p53-A138V BP100-luciferase reporter, luminescence, 24 h; series mostly up to 92.2 µM; note: nearly all actives have a fitted effect of over 45% in size
Summary of the method: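 p53-null H1299 cells stably carrying temperature-sensitive p53-A138V and a BP100-luciferase reporter were pinned with compounds (4-point, 1:5 series) and held 24 hrs at 37 deg C. Luminescence was read 10 min after detection reagent.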
Potency is the fitted concentration of half-maximal effect; tags give direction and shape of the fitted curve.

| SMILES | Potency |
| --- | --- |
| COc1ccc2oc(C(=O)NN3C(C)CCCC3C)c(C)c2c1 (stereo not drawn) | inactive |
| CN(C)c1ccc(NC(=O)c2sc(SCC(=O)Nc3nccs3)nc2N)cc1 | inactive |
| NC(=O)CSc1ncc(-c2ccc([N+](=O)[O-])cc2)[nH]1 | inactive |
| COc1ccc(-n2c(N)c(C(=O)NCc3ccco3)c3nc4ccccc4nc32)cc1OC | inactive |
| COc1cc(Cl)cc(/C=C/c2ccc3ccccc3n2)c1OC(C)=O | inconclusive [activator, full curve, poor fit] |
| CC(/C=N/NC(=O)CCn1nnc2ccccc21)=C\c1ccccc1 | inconclusive [activator, partial curve, poor fit] |
| COc1ccc(CNC(=O)C2CC(c3cccc(OC)c3)=NO2)cc1 (stereo not drawn) | inconclusive [activator, full curve, poor fit] |
| Cc1ccc(S(=O)(=O)Nc2ccc(C(=O)N3CCN(c4ccccc4O)CC3)cc2)cc1[N+](=O)[O-] | inactive |
| O=C(CCCc1ccccc1)Nc1cccnc1 | inconclusive [activator, full curve, poor fit] |
| O=C1CN(C(=O)COc2ccc(Cl)cc2Cl)c2ccccc2N1 | inactive |
| CCOc1ccc(NC(=S)c2ccc3ccccc3n2)cc1 | inconclusive [activator, partial curve, poor fit] |
| O=C(Nc1ccccc1F)c1ccc(OCc2ccccc2)cc1 | inconclusive [activator, partial curve, poor fit] |
| COc1cccc(OCC(=O)Nc2ccccc2C(N)=O)c1 | inconclusive [activator, partial curve, poor fit] |
| Cc1cccc(C)c1NC(=S)N1CCC(c2ccccc2)C1 (stereo not drawn) | inactive |
| Cc1cccc(-c2noc(CCCC(=O)Nc3cccnc3)n2)c1 | inactive |
| CCN(c1ccccc1)S(=O)(=O)c1ccc(C(=O)Nc2ncccc2C)cc1 | inactive |
| COc1cc(OC)cc(C(=O)/C=C2\Sc3ccccc3N2C)c1 | inactive |
| CC1C/C(=N\NC(=S)NCc2ccccc2)CC(C)(C)C1 (stereo not drawn) | inactive |
| COc1ccccc1NC(=O)Nc1ccc(C)cn1 | inactive |
| CCOC(=O)c1cc2c(C)n(-c3ccc(OCC)cc3)c(C)c2cc(C(=O)OCC)c1=O | inconclusive [activator, single point] |
| CN(CCc1ccccn1)C(=O)c1ccc(OC2CCN(CCc3ccccc3)CC2)cc1 | inconclusive [activator, partial curve, poor fit] |
| Cc1nc(Nc2ccc(Cl)cc2Cl)sc1C(=O)Nc1ccccc1 | inconclusive [activator, single point] |
| COc1ccc2nc(-c3cccc(N)c3)[nH]c2c1 | inconclusive [activator, full curve, poor fit] |
| O=c1c2ccccc2nc2sc3ccccc3n12 | inconclusive [activator, partial curve, poor fit] |

| SMILES | Potency |
| --- | --- |
| Brc1ccc(-c2noc(CCc3ccccc3)n2)o1 | inconclusive [activator, partial curve] |
| O=C(Nc1cc2c(cc1[N+](=O)[O-])OCCO2)c1cccnc1 | inconclusive [activator, full curve, poor fit] |
| CC(C)Cc1cc(CNC(=O)C2CCC(=O)N(CCc3cccc(F)c3)C2)on1 (stereo not drawn) | inconclusive [activator, single point] |
| Cc1ccc(C)c(S(=O)(=O)N/N=C2/CCCc3ccccc32)c1 | inactive |
| COc1ccc(NC(=O)c2nc3ccccc3s2)cc1 | inconclusive [activator, partial curve, poor fit] |
| Cc1ccc2c(c1)-c1c(cnn1CC(=O)O)CO2 | inactive |
| O=c1oc(-c2cccs2)nc2scc(-c3cccs3)c12 | inconclusive [activator, partial curve, poor fit] |
| O=C(Nc1ccon1)c1cnc2sccn2c1=O | inconclusive [activator, partial curve, poor fit] |
| CCC(=O)Nc1ccccc1C(=O)OCC(=O)c1ccccc1 | inactive |
| O=C(OCc1ccccc1Cl)c1ccccc1C(=O)c1ccccc1 | inconclusive [activator, full curve] |
| CCc1sc(C(=O)Nc2nccs2)cc1C | inconclusive [activator, partial curve, poor fit] |
| COC(=O)c1ccc(C(=O)Nc2nnc(-c3cccnc3)o2)cc1 | inactive |
| COc1ccc(NC(=O)NNC(=O)c2cc3ccccc3cc2O)cc1 | inactive |
| Sc1oc(-c2ccccc2)cc1C=Nc1ccccc1 | inconclusive [activator, full curve, poor fit] |
| Cc1ccccc1Nc1c(-c2ccccn2)nc2c(C)cccn12 | inactive |
| COc1cc(CNC(=O)c2ccc(Cn3nc(C)c(Cl)c3C)o2)cc(OC)c1 | inactive |
| CCOC(=O)N1CCC(N2CCN(S(=O)(=O)CC)CC2)CC1 | inactive |
| CC(C)N1CCN(c2ccc(OC[C@H]3CO[C@](Cn4cncn4)(c4ccc(Cl)cc4Cl)O3)cc2)CC1 | inconclusive [activator, partial curve, poor fit] |
| CC(C)Oc1ccc(CCc2n[nH]c(=S)n2-c2ccccc2)cc1 | inactive |
| CCc1c(C(=O)OCc2ccccc2)[nH]c(C)c1C | inconclusive [activator, full curve, poor fit] |
| Cc1onc(-c2ccccc2Cl)c1C(=O)Nc1cccc2cccnc12 | inconclusive [activator, partial curve, poor fit] |
| Cc1ccc(O)c(NC(=S)NC(=O)Cc2ccc(Cl)cc2)c1 | inconclusive [activator, single point] |
| CCn1nnc(NC(=O)c2ccccc2Br)n1 | inconclusive [activator, partial curve, poor fit] |
| COc1ccccc1NC(=O)c1cnc(SCC(=O)NCC2CCCO2)n(C)c1=O (stereo not drawn) | inconclusive [activator, single point] |
